Screen size: about 380,000 compounds; about 4,000 (1.1%) were called active. Inconclusive results, whose numbers are uncertain, are shown with a selection of clear calls. Calls come from the whole dose curve; as a rule, active = well fitted activation curve with a large enough effect; inconclusive = small, poorly fitted or top-dose-only effect; inactive = no such curve, though single readings can be large or run the other way. Potencies of inconclusive entries are doubtful fits and often do not repeat.
experiment: qHTS Assay to Identify Small Molecule Activators of BRCA1 Expression; conditions: MCF7-BRCA1-FFLuc reporter, luminescence, 48 h; series mostly up to 46.1 µM; note: nearly all actives have a fitted effect of over 80% in size
Method in brief: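 Using MCF7 cells harboring a BRCA1 firefly luciferase reporter, plated 2 h before compound pinning, the screen measured luminescence after 48 h incubation. Responses were normalized to DMSO and 10 microM genistein, then fitted for concentration-effect.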
Potency is the fitted concentration of half-maximal effect; tags give direction and shape of the fitted curve.

Row | Structure (SMILES) | Potency
1 | CCOc1cc(-c2ccccc2)nc(N)n1 | inconclusive: 11.2 µM [activator, partial curve, poor fit]
2 | O=C1CC(/C=C/c2ccc(Cl)cc2)=Nc2ccccc2N1 | inconclusive: 2 µM [activator, partial curve, poor fit]
3 | Cn1c(Nc2cccc(Cl)c2)nc2ccccc21 | inconclusive: 11.2 µM [activator, partial curve, poor fit]
4 | CC(C)Oc1ccc(C(=O)/C(=C\c2cccs2)c2nc3ccccc3o2)cc1 | inactive
5 | COc1ccc(CN2C(=O)C(NC(=O)c3ccc(C)cc3)(C(F)(F)F)N=C2c2ccccc2)cc1 (stereo not given) | inactive
6 | CCCOc1ccc(C(=O)Nc2ccc(N(C)C)cc2)cc1 | inconclusive: 3.98 µM [activator, partial curve, poor fit]
7 | CC(C)CC(=O)NC(=S)Nc1nc(-c2cccc3ccccc23)cs1 | inactive
8 | COc1ccc(NC(=O)C2CCCN(c3ncccn3)C2)cc1 (stereo not given) | inconclusive: 14.1 µM [activator, partial curve, poor fit]
9 | CC(C)n1cnc2cc(NCc3ccco3)ccc21 | active: 10 µM
10 | Brc1cc2c(cc1COc1ccc(-c3nn[nH]n3)cc1)OCO2 | inconclusive: 35.5 µM [activator, single point]
11 | CCCCNC(=O)CSc1nc2ccc(Nc3nc(N4CCOCC4)nc(N4CCOCC4)n3)cc2s1 | inactive
12 | CNc1nc(-c2ccc3c(c2)CCN3C(=O)c2ccccc2F)cs1 | inconclusive: 0.562 µM [activator, full curve, poor fit]
13 | Cc1ccc(N2Cc3ccccc3C2=S)cc1 | active: 3.98 µM
14 | Cc1nc(CS(=O)(=O)c2ccccc2)cc(Sc2ccccc2Cl)n1 | inconclusive: 10 µM [activator, partial curve, poor fit]
15 | O=C(COc1ccc(Br)cc1Cl)c1ccc[nH]1 | inconclusive: 8.91 µM [activator, partial curve, poor fit]
16 | CCc1nc2ccc(C(=O)N(C)CCCN(C)C)cn2c1N(C)C(=O)C1CCCCC1 | inactive
17 | N/C(=N/OC(=O)c1ccccc1F)c1nonc1N | inconclusive: 22.4 µM [activator, single point]
18 | COc1ccc(-c2nnc(-c3cccs3)o2)cc1OC | active: 5.01 µM
19 | Brc1ccc(-c2csc(NC3=NCCCCC3)n2)cc1 | inconclusive: 35.5 µM [activator, single point]
20 | COc1cc2oc(=O)cc(CN3CCCCC3)c2cc1Cl | inactive
21 | O=C(Nc1ccccc1Oc1ccccc1)c1cc([N+](=O)[O-])ccc1Cl | inactive
22 | COc1cc(/C=C/c2ccc(O)cc2)cc(OC)c1 | inconclusive: 17.8 µM [activator, single point]
23 | Cn1cc(C=O)c(-c2ccc3c(c2)OCCCO3)n1 | inconclusive: 14.1 µM [activator, partial curve, poor fit]
24 | Clc1ccc(-c2csc3ncnc(NCCN4CCOCC4)c23)cc1 | inactive
25 | COc1ccc2c(c1)oc(=O)c1c3ccccc3[nH]c21 | inconclusive: 3.16 µM [activator, full curve, poor fit]

Row | Structure (SMILES) | Potency
26 | CCn1c(/C=C/c2c(C)n(CC)c3ccccc23)nc2ccccc2c1=O | inactive
27 | CCOC(=O)c1ncn2c1CN(C)C(=O)c1cc(F)ccc1-2 | inactive
28 | CC(C)(C)c1cc(NCCCn2ccnc2)n2ncc(-c3ccccc3)c2n1 | inconclusive: 1.41 µM [activator, full curve, poor fit]
29 | Cc1ccc(C(=O)Nc2ccc([N+](=O)[O-])cn2)o1 | inconclusive: 12.6 µM [activator, partial curve, poor fit]
30 | c1coc(-c2nn3c(-c4ccco4)nnc3s2)c1 | inactive
31 | CC1=CN2C(=N)/C(=C/c3ccco3)C(=O)N=C2S1 | inconclusive: 1.58 µM [activator, partial curve, poor fit]
32 | CCc1ccccc1NC(=S)N1CCN(c2ccccc2F)CC1 | inactive
33 | Cc1ccc(C(=O)Nc2cc3c(cc2Cl)OCCCO3)cc1 | inconclusive: 0.562 µM [activator, full curve, poor fit]
34 | O=C(Nc1ccc(Cl)cn1)c1ccc(Oc2ccccc2)cc1 | inconclusive: 15.8 µM [activator, single point]
35 | O=C(O)c1ccc(Cn2nnc3sc4c(c3c2=O)CCCC4)cc1 | active: 7.94 µM
36 | COCCNc1nc2sc3c(c2c(=O)n1Cc1ccco1)CCCCC3 | inconclusive: 2.51 µM [activator, full curve, poor fit]
37 | O=C(CCCC(=O)N1CCN(c2ccccc2F)CC1)c1ccccc1 | inconclusive: 14.1 µM [activator, partial curve, poor fit]
38 | CCSc1nnc(NC(=O)c2ccc(C)cc2)s1 | inconclusive: 2.51 µM [activator, partial curve, poor fit]
39 | O=C(NC(=S)Nc1ccccc1Cl)c1ccco1 | inconclusive: 11.2 µM [activator, partial curve, poor fit]
40 | COc1cc(OC)cc(-c2noc(-c3csc([C@@H]4O[C@H](CO)[C@H](O)[C@H](O)[C@H]4O)n3)n2)c1 | inactive
41 | Cc1cccc(NC(=O)Nc2cc(C)on2)c1 | inconclusive: 20 µM [activator, single point]
42 | Clc1ccc(-c2nc(-c3ccncc3)no2)c(Cl)c1 | inconclusive: 2.82 µM [activator, full curve, poor fit]
43 | CC(/C=C/c1ccc(OCc2ccccc2)cc1)=N\O | inconclusive: 2.24 µM [activator, full curve, poor fit]
44 | CN(C)/N=C/c1ccc(Sc2ccc([N+](=O)[O-])cc2[N+](=O)[O-])o1 | inactive
45 | Cc1cccc(C=NOCCc2ccccc2)n1 | active: 10 µM
46 | c1ccc2c(c1)nc(NCCN1CCOCC1)c1nncn12 | inactive
47 | O=C1NCCN(Cc2cccc(Oc3ccccc3)c2)C1CC(=O)N1CCCCC1 (stereo not given) | inactive
48 | c1ccn2c(c1)nc1c2nc2ccccn21 | inconclusive: 10 µM [activator, partial curve, poor fit]
49 | O=C(N/N=C/c1ccccc1)c1ccco1 | inconclusive: 10 µM [activator, partial curve, poor fit]
50 | O=[N+]([O-])c1ccc(N2CCN(C(=S)NCc3ccc(Cl)cc3)CC2)cc1 | inactive

Row | Structure (SMILES) | Potency
51 | CCCn1c(NC(=O)c2ccc(F)cc2)nc2ccccc21 | inactive
52 | O=c1cc(-c2ccccc2Cl)oc2cc(O)cc(O)c12 | inconclusive: 20 µM [activator, single point]
53 | CCc1ccc2[nH]c(=O)c(CN(CCN(C)C)C(=O)Nc3ccccc3)cc2c1 | inactive
54 | O=C(NCC1COc2ccccc2O1)c1ccc(Cl)cc1 (stereo not given) | inconclusive: 2.51 µM [activator, full curve, poor fit]
55 | O=C(NC1CCCCCC1)C(=S)NCCc1ccccc1 | inconclusive: 15.8 µM [activator, single point]
56 | Cc1cccc(NC(=O)Nc2ccc3c(c2)CCC3)c1 | active: 4.47 µM
57 | COc1ccc(C(=O)NC(=S)Nc2ccccc2N2CCOCC2)cc1[N+](=O)[O-] | inactive
58 | O=C(Nc1ccc2nc(-c3ccccc3)[nH]c2c1)c1cccs1 | active: 7.08 µM
59 | CCOC(=O)CNC(=O)c1ccc(OCC(F)(F)F)cc1 | inconclusive: 14.1 µM [activator, partial curve, poor fit]
60 | S=C(NCCc1ccccc1)NCC1CCCO1 (stereo not given) | inconclusive: 14.1 µM [activator, partial curve, poor fit]
61 | CCc1ccc(S(=O)(=O)N2CCN(C(=O)C3CCN(C(C)=O)CC3)CC2)cc1 | inactive
62 | CS(=O)(=O)Nc1ccc(C(=O)Nc2ccc3ccccc3c2)cc1 | inconclusive: 1.58 µM [activator, full curve, poor fit]
63 | CC(=C/c1ccccc1)/C=N/n1c(C)n[nH]c1=S | inconclusive: 14.1 µM [activator, single point]
64 | Clc1cc2nc(-c3cccnc3Cl)[nH]c2cc1Cl | inconclusive: 1.41 µM [activator, full curve, poor fit]
65 | CC(C)C(=O)N1CCc2cc(-c3csc(N)n3)ccc21 | inconclusive: 2 µM [activator, partial curve, poor fit]
66 | CN(C)c1cccc(/C=C(\C#N)c2ccccc2)c1 | inconclusive: 1 µM [activator, full curve, poor fit]
67 | Cc1ccn2cc(-c3cccc([N+](=O)[O-])c3)nc2c1 | inconclusive: 2.51 µM [activator, partial curve, poor fit]
68 | Cc1ccnc(NC(=O)c2ccc(NC(=O)c3ccco3)cc2)c1 | active: 11.2 µM
69 | O=C(CCOc1ccccc1)Nc1ccc(Br)cc1 | active: 7.94 µM
70 | O=C(Cc1ccccc1F)c1ccc(O)cc1O | inconclusive: 14.1 µM [activator, single point]
71 | Cc1ccc2c(C)cc(=S)[nH]c2c1 | inactive
72 | COc1ccc(C(=O)Nc2scc(-c3ccc(Cl)cc3Cl)c2C(N)=O)cc1 | inconclusive: 1.58 µM [activator, partial curve, poor fit]
73 | CCn1c(/C=C/c2ccccc2C)nc2ccccc2c1=O | inactive
74 | O=C(NNC(=O)c1ccccc1Br)c1cccs1 | inconclusive: 7.08 µM [activator, partial curve, poor fit]
75 | O=C(Nc1ccc(N=Nc2ccccc2)cc1)c1ccccc1Cl | inconclusive: 0.562 µM [activator, full curve, poor fit]
